Source: article PMC6533336
These are yes or no findings as the source states them, for the method shown. In cells and extracts the contact can be indirect. Some results given as binding are weak or reduced against the parent protein; the word gives no strength.

The chains behind the UniProt entries cited, without tags or fusion partners.
UniProt Q61656: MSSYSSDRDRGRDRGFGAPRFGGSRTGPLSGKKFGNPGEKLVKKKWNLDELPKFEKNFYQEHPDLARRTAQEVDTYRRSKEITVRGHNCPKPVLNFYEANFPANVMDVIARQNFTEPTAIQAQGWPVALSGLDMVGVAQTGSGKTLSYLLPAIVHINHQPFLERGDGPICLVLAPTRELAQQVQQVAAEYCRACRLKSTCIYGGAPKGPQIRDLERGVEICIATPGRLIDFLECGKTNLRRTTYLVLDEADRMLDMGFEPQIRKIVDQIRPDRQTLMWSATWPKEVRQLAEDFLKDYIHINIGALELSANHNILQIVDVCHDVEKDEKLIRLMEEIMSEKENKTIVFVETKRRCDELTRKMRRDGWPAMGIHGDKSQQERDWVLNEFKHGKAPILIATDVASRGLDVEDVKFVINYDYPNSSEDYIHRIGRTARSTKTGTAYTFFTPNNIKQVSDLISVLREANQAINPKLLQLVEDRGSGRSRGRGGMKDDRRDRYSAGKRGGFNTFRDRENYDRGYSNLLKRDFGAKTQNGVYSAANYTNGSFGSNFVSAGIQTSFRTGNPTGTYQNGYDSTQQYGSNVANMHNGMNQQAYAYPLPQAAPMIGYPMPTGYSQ
UniProt Q9CXY6: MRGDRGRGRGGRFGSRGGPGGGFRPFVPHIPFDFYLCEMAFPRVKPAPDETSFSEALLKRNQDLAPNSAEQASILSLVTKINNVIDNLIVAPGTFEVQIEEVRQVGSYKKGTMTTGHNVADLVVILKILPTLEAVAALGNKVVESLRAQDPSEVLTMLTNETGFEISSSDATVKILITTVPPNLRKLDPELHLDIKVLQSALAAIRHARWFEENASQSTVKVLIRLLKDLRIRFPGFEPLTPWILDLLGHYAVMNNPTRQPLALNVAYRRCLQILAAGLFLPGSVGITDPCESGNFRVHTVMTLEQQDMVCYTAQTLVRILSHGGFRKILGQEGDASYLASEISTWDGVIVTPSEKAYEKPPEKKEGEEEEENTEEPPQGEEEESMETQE
UniProt P70372: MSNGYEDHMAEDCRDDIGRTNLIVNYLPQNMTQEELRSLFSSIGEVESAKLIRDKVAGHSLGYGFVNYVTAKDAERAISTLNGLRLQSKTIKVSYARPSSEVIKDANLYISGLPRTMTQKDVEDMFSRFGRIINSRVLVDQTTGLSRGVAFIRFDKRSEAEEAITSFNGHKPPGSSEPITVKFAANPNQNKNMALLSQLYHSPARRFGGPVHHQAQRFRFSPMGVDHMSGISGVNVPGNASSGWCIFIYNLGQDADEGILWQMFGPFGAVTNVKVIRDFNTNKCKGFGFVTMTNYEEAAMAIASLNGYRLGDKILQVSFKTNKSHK
UniProt Q9CPN8: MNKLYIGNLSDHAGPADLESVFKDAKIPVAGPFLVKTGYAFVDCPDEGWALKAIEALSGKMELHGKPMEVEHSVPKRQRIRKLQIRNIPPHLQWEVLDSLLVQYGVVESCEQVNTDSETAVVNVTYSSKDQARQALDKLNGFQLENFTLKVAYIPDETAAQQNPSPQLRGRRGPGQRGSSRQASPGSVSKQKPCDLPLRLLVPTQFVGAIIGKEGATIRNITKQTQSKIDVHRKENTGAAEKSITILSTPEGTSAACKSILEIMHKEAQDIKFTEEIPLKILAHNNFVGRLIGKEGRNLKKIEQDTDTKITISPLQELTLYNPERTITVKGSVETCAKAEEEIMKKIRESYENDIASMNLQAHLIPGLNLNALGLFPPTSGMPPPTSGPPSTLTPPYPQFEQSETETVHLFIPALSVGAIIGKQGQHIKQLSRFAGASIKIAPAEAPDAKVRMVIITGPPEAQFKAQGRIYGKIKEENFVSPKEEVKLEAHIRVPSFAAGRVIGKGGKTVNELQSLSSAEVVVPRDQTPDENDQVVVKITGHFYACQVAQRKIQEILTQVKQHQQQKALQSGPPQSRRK
UniProt P29341: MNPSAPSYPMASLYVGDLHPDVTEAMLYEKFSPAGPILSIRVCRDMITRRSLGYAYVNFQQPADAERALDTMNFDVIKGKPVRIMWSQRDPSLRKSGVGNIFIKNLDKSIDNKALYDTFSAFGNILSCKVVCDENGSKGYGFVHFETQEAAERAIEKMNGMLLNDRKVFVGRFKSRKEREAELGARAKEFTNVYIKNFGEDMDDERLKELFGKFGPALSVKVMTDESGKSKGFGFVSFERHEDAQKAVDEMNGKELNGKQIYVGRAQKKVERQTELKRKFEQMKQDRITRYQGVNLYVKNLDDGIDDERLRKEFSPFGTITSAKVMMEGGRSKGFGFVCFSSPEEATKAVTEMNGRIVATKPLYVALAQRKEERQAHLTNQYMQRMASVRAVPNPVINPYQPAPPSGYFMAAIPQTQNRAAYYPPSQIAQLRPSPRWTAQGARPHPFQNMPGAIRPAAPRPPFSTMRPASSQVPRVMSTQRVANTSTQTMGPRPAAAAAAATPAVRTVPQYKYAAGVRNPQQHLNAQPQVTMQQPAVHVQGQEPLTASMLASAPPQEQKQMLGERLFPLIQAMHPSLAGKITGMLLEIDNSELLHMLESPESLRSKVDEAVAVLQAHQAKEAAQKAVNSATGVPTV
UniProt Q9R210: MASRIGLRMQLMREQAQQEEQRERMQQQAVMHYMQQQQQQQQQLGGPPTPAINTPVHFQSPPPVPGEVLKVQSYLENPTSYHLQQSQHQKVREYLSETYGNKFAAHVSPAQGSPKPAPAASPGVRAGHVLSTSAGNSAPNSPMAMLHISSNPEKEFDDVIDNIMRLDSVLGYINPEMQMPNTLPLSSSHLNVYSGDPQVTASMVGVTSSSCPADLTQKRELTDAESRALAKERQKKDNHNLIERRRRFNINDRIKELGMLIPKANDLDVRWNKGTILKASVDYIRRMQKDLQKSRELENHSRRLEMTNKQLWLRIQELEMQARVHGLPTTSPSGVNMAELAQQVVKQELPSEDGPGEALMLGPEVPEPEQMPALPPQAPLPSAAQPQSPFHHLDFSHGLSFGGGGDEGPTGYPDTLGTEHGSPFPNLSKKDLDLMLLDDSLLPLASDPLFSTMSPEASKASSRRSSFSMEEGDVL

B1: ILF3 (interleukin enhancer binding factor 3) (protein, UniProt Q9Z1X4 1-898)
chain: MRPMRIFVNDDRHVMAKHSSVYPTQEELEAVQNMVSHTERALKAVSDWIDEQEKGNSELSEAENMDTPPDDESKEGAGEQKAEHMTRTLRGVMRVGLVAKGLLLKGDLDLELVLLCKEKPTTALLDKVADNLAIQLTTVTEDKYEILQSVDDAAIVIKNTKEPPLSLTIHLTSPVVREEMEKVLAGETLSVNDPPDVLDRQKCLAALASLRHAKWFQARANGLKSCVIVIRVLRDLCTRVPTWGPLRGWPLELLCEKSIGTANRPMGAGEALRRVLECLASGIVMPDGSGIYDPCEKEATDAIGHLDRQQREDITQSAQHALRLAAFGQLHKVLGMDPLPSKMPKKPKNENPVDYTVQIPPSTTYAITPMKRPMEEDGEEKSPSKKKKKIQKKEEKADPPQAMNALMRLNQLKPGLQYKLISQTGPVHAPIFTMSVEVDGSNFEASGPSKKTAKLHVAVKVLQDMGLPTGAEGRDSSKGEDSAEESDGKPAIVAPPPVVEAVSNPSSVFPSDATTEQGPILTKHGKNPVMELNEKRRGLKYELISETGGSHDKRFVMEVEVDGQKFQGAGSNKKVAKAYAALAALEKLFPDTPLALEANKKKRTPVPVRGGPKFAAKPHNPGFGMGGPMHNEVPPPPNIRGRGRGGNIRGRGRGRGFGGANHGGGYMNAGAGYGSYGYSSNSATAGYSQFYSNGGHSGNAGGGGSGGGGGSSSYSSYYQGDSYNSPVPPKHAGKKPLHGGQQKASYSSGYQSHQGQQQPYNQSQYSSYGTPQGKQKGYGHGQGSYSSYSNSYNSPGGGGGSDYSYDSKFNYSGSGGRSGGNSYGSSGSSSYNTGSHGGYGTGSGGSSSYQGKQGGYSSQSNYSSPGSSQSYSGPASSYQSSQGGYSRNTEHSMNYQYR
B2: SRSF3 (protein, UniProt P84104 1-164)
chain: MHRDSCPLDCKVYVGNLGNNGNKTELERAFGYYGPLRSVWVARNPPGFAFVEFEDPRDAADAVRELDGRTLCGCRVRVELSNGEKRSRNRGPPPSWGRRPRDDYRRRSPPPRRRSPRRRSFSRSRSRSLSRDRRRERSLSRERNHKPSRSFSRSRSRSRSNERK

target: DEAD box helicase 5 (DDX5) (mouse (endogenous in cultured murine undifferentiated spermatogonia)) (UniProt Q61656); experiment: co-IP; IP with Armenian hamster anti-PLZF (clone 13G10) or goat anti-DDX5 (Abcam ab10261), 10 ug antibody, protein G sepharose beads, western blot, IgG control; cultured wildtype murine undifferentiated spermatogonia

binding	Molecule
binds	ILF2 (from UniProt Q9CXY6 1-390)
binds	ELAVL1 (from UniProt P70372 1-326)
binds	IGF2BP3 (from UniProt Q9CPN8 1-579)
binds	PABP1 (from UniProt P29341 1-636)
no binding	TFEB (from UniProt Q9R210 1-475)

target: DEAD box helicase 5 (DDX5) (mouse (endogenous in cultured murine undifferentiated spermatogonia)) (UniProt Q61656); experiment: as above; remark: another data set of the same source

binding	Molecule
binds	B1
binds	B2
